Among all 45,000 compounds or so, about 65 (0.1%) were called active. Calls follow the shape of the dose curve; as a rule, active = well fitted activation curve with a large enough effect; inconclusive = small, poorly fitted or top-dose-only effect; inactive = no such curve, though single readings can be large or run the other way. The list shows a part of the results.
These molecules were tested against Galactocerebrosidase (Homo sapiens) (UniProt P54803) (assay: A Novel Cell-Based Assay to Identify Small Molecules for B -Galactocerebrosidase). Conditions: 145M-Twi-hGALC-G270D cells, HMU-beta-Gal fluorescence, 48 h; series mostly up to 57.5 µM; activation: at the top concentration.
Sequence of UniProt P54803 (P54803 whole entry, looked up): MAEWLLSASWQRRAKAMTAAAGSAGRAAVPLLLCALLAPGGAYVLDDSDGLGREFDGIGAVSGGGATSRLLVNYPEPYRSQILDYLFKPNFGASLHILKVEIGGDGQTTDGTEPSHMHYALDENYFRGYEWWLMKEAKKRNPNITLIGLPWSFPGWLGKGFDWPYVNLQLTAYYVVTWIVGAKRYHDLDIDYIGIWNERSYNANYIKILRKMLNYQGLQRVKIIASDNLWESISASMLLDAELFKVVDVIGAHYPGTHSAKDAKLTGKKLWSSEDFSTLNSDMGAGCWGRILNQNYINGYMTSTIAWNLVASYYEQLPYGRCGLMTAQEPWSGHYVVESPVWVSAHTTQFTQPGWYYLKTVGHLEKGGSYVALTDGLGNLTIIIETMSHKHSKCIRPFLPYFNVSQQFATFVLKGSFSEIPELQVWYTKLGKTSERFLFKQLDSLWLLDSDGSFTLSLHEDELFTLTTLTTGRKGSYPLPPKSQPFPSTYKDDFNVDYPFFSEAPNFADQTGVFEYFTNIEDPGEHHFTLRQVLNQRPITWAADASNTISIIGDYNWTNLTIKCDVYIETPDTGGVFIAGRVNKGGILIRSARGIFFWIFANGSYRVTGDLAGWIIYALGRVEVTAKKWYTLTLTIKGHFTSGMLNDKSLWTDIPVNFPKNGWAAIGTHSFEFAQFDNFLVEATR
Method in brief: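 qHTS, 1536-well; 145M-Twi-hGALC-G270D cells (WT line also made) in DMEM/F12 + 10% FBS; compound incubation on live cells; HMU-β-gal 0.1 mM final, pH 5.2, NaTC; carbonate stop; fluorescence increase = enhanced residual activity.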
Also: nearly all actives have a fitted effect of over 65% in size.
For activation in this document: 0% is about no effect.
Potency is read from the fitted curve at half-maximal effect.

activation, inactive:
CC(=O)N1CCCc2ccc(NC(=O)c3ccc(OC(C)C)cc3)cc21 -3.32%
Cc1ccc2nc(COc3ccccc3NC(=O)Nc3ccc(F)c(Cl)c3)cc(=O)n2c1 -11.2%
Cc1cccc(NC(=O)CSc2cn(CC(=O)N3CCOCC3)c3ccccc23)c1C -5.74%
CCSc1nc(-c2ccc(OC)cc2)nc2c1Cc1c(CO)cnc(C)c1O2 -8.11%
Cc1ccc2c(=O)cc(C(=O)Nc3c(C)cccc3C)oc2c1 -13.2%
CCc1ccc(NC(=O)Cn2ncn3c(cc4ccccc43)c2=O)cc1 -10.2%
CCCCN(Cc1cc2cc(C)ccc2[nH]c1=O)C(=O)c1cccc(Cl)c1 -5.14%
Cc1cc2c(cc1S(=O)(=O)NCc1ccc(F)cc1)OCCN2C -10.4%
COc1ccc(S(=O)(=O)c2c(Nc3cccc(Cl)c3)sc(C(=O)c3ccccc3)c2N)cc1 -9.16%
COc1cccc2cc(-c3nc4sc5c(c4c(=O)[nH]3)CCC(C(C)(C)C)C5)c(=O)oc12 (centres undefined) -5.27%
COCCN(CCOC)S(=O)(=O)c1ccc(C(=O)Nc2sc3c(c2C(N)=O)CCCC3)cc1 -14.1%
Cc1cccc(-c2nc(SCc3cc(=O)c4c(C)cc(C)cc4[nH]3)n[nH]2)c1 -1.4%
Cc1ccc(Cl)cc1-n1ncc2c(NCCc3ccccc3)ncnc21 -19.8%
COc1cccc(NC(=O)Cn2nc(N3CCN(c4ccccc4)CC3)ccc2=O)c1 -10.7%
CCCNC(=O)c1ccc2c(c1)N=C(CCC)c1ccccc1S2 -5.77%
Cc1cccc(CSc2cn(CC(=O)N3CCOCC3)c3ccccc23)c1 -3.27%
O=C(Cn1ncc2c3ccccc3n(Cc3ccccc3)c2c1=O)NCCc1ccc(Cl)cc1 -15.7%
COc1ccc(S(=O)(=O)N2CCC(c3nc4ccccc4s3)CC2)cc1OC -23%
CCCCNc1nc2c(S(=O)(=O)c3ccc(Br)cc3)nnn2c2ccsc12 -7.33%
Cc1ccc(NC(=O)Cn2c(=O)n(Cc3nc(-c4ccccc4)no3)c(=O)c3ccccc32)c(C)c1 -10.1%
COc1ccc(C(=O)c2ccccc2O)c(O)c1 -22.3%
Cc1ccc(OCC(=O)Nc2ccc(OCc3cc(=O)n4ccsc4n3)cc2)cc1C -7.33%
CCC(=O)N1CCc2cc(S(=O)(=O)NC(Cc3ccccc3)C(=O)NCc3ccccc3)ccc21 (centres undefined) -8.08%
CCN(C(=O)CN1C(=O)c2ccccc2Sc2ccc(C(=O)OC)cc21)c1cccc(C)c1 -7.53%
Cc1nn(C(C)C(=O)NCc2ccc(OC(C)C)cc2)c(=O)c2c1sc1ccccc12 (centres undefined) -19.3%
Cc1ccc(C(=O)N(Cc2ccc(N(C)C)cc2)CC2CCCO2)cc1 (centres undefined) -3.9%
COc1ccccc1NC(=O)c1c(-c2ccc(C)cc2)nnc2ccccc12 -20.8%
CC(CCc1ccccc1)NC(=O)CSc1n[nH]c(-c2ccccc2)n1 (centres undefined) -9.85%
CCCCNC(=O)CCC(=O)NNc1nc2ccccc2c2nc(C)nn12 -11.8%
Cc1ccc2ccc3cc(C(=O)N4CCN(c5ccccc5F)CC4)nc3c2[nH]1 -19.4%
Cc1ccc(Nc2c(-c3ccccn3)nc3ccc(Br)cn23)cc1 -8.92%
O=C(NCc1cccs1)c1ccc2c(c1)sc1nc(-c3ccc(F)cc3)cn12 -13.1%
O=C(Nc1cc(Cl)ccc1Cl)c1ccc2c(c1)N(Cc1cccc(Cl)c1)C(=O)c1ccccc1S2=O (centres undefined) -22.6%
COc1ccc(N2CCN(C(=O)Nc3cn(CC(C)C)c(=O)c4ccccc34)CC2)cc1 -26.9%
Cc1ccc2oc(C(=O)Nc3c(C(=O)Nc4cccc(Cl)c4)oc4ccccc34)cc(=O)c2c1 -18.1%
Cc1nn(-c2ccccc2)c(OC(=O)c2ccccc2)c1S(=O)(=O)c1ccccc1 -7.14%
COc1c(Cl)cc(C(=O)Nc2cc(-c3nc4ccccc4[nH]3)ccc2C)cc1Cl -0.667%
CCOC(=O)CSc1nc2ccccc2c(=O)n1-c1ccc(C(=O)NCCOC)cc1 -17.3%
Cc1ccc(N2C(=O)CS(=O)(=O)C23C(=O)Nc2ccccc23)cc1C (centres undefined) -21.9%
O=C(Nc1ccccc1C(F)(F)F)N1CCOc2ccc(Cl)cc21 -8.21%
Cc1ccccc1Cn1ccn(-c2ccc(F)c(F)c2)c(=O)c1=O -11.8%
CN(Cc1nc(-c2ccc(Cl)cc2)no1)S(=O)(=O)c1ccccc1 -10.9%
CC(C)c1ccc(C2CC(=O)Nc3cc4c(cc32)OCCO4)cc1 (centres undefined) -34.6%
CCOC(=O)N1CCC(NC(=O)c2ccc3c(c2)N(Cc2ccccc2C)C(=O)c2ccccc2S3=O)CC1 (centres undefined) -2.95%
CCOc1ccccc1-c1noc(CSc2nnc(-c3ccccc3)n2-c2ccc(OC)cc2)n1 -19.7%
CCCN1CCc2nc(N3CCN(C)CC3)ncc2C1 -7.07%
Cc1ccc2nc(-c3ccccn3)c(Nc3ccccc3C)n2c1 -16%
CCN(CC)c1nn2c(=O)c(C(=O)NCCc3cccc(C)c3)cnc2s1 -11.6%
CCN1C(=O)C(O)(c2c[nH]c3ccccc23)c2cc(Br)ccc21 (centres undefined) -9.71%
COc1ccc(S(=O)(=O)NCCc2csc3nc(-c4ccccc4)nn23)cc1OC -1.1%
Fc1cccc(CSc2ccc(-c3cccs3)nn2)c1 -18%
Cc1cccc(Cn2c(=O)n(-c3ccccc3C)c(=O)c3c2c2cc(C)ccc2n3C)c1 -5.99%
CCc1cccc(C)c1NS(=O)(=O)c1ccc2c(c1)CC(C)N2C(=O)C1CC1 (centres undefined) -9.49%
COc1ccc(-c2noc(CSc3nc4ccccc4[nH]3)n2)cc1OC -15.7%
CC(C)Cc1ccc(C(C)C(=O)O)cc1 (centres undefined) -6.3%
CCC(=O)Nc1nnc(S(=O)(=O)N2c3ccccc3CC2C)s1 (centres undefined) -2.1%
Cc1csc2nc(COC(=O)c3ccc(NC(=O)C(C)Oc4ccccc4)cc3)cc(=O)n12 (centres undefined) -8.27%
Cc1ccc(CNc2nc3ccccc3n3cnnc23)cc1 -0.629%
CCC(=O)N1c2ccccc2CC1C(=O)NCc1cc(Br)ccc1OC (centres undefined) -16.1%
Cc1ccc2oc3c(c(=O)c2c1)C(c1ccc(O)cc1)N(c1nc(C)c(C)s1)C3=O (centres undefined) -12.4%
O=C(NCc1cccc(F)c1)c1ccccc1NC(=O)c1nsc2ccccc12 2.49%
Cc1cccc(NC(=O)C2CCCN2S(=O)(=O)c2ccc3c(c2)n(C)c(=O)c(=O)n3C)c1 (centres undefined) 10.6%

Potency, active:
COc1ccc(/C=C/c2nc(C#N)c(N3CCCCC3)o2)cc1OC 28.2 µM
CCCn1c(=N)c(C(=O)NCC2CCCO2)cc2c(=O)n3cc(C)ccc3nc21 (centres undefined) 12.6 µM

Reference: PubChem BioAssay AID1159614 (National Center for Advancing Translational Sciences (NCATS), 2016)
